# Some of the results follow. Many values rest on one well or one pass, so single values are uncertain.
# What was measured:
# Test in all cases: cell count relative to DMSO control; melanoma cells; higher = more viable cells
# Conditions in all cases: library dose: standard library concentration; 72 h
# [1] = test system: SkMel28
# [2] = test system: SkMel2
# [3] = test system: SkMel30
# [4] = test system: SkMel5
# [5] = test system: UACC257
# [6] = test system: UACC62
# [7] = test system: WM115
# [8] = test system: WM1716
# [9] = test system: WM1745
# [10] = test system: WM3526
# 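Note: cells treated in 1,536-well plates, then fixed and DAPI-stained, with nuclei counted from automated high-throughput microscope images.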
Structure (SMILES),cell count [1] [%],cell count [2] [%],cell count [3] [%],cell count [4] [%],cell count [5] [%],cell count [6] [%],cell count [7] [%],cell count [8] [%],cell count [9] [%],cell count [10] [%]
"C[As](C)SC[C@H](NC(=O)CC[C@H](N)C(=O)O)C(=O)NCC(=O)O [Darinaparsin] + CO[C@@H]1[C@H](N(C)C(=O)c2ccccc2)C[C@H]2O[C@]1(C)n1c3ccccc3c3c4c(c5c6ccccc6n2c5c31)C(=O)NC4 [Midostaurin] (first compound 2 µM, partner dose 0.4 µM)",49.2,52.8,49,43.9,56.8,56,34.5,47.6,56.4,54.9
"C[As](C)SC[C@H](NC(=O)CC[C@H](N)C(=O)O)C(=O)NCC(=O)O [Darinaparsin] + O=C(O)C(=O)Nc1sc2c(c1C(=O)O)CCNC2 [TCS401] (first compound 2 µM, partner dose 8.33333 µM)",66.1,88.5,95.1,54.2,74.4,105,71.8,75.1,72.9,63.3
"N.N.[Cl][Pt][Cl] [cisplatin] + CC(=O)c1c(C)c2cnc(Nc3ccc(N4CCNCC4)cn3)nc2n(C2CCCC2)c1=O [palbociclib] (first compound 8 µM, partner dose 0.2 µM)",56.9,79.9,76.7,62.9,71,65.8,83.2,45.9,83.3,42.2
"C[C@]12O[C@H](C[C@]1(O)CO)n1c3ccccc3c3c4c(c5c6ccccc6n2c5c31)CNC4=O [Lestaurtinib] + Cc1cc(N2CCOCC2)cc2[nH]c(-c3c(NC[C@@H](O)c4cccc(Cl)c4)cc[nH]c3=O)nc12 [BMS536924] (first compound 0.02 µM, partner dose 1 µM)",63,57.1,63.7,45.6,88.7,87.6,82.6,90.2,60.9,42.8
"Cn1cc(C2=C(c3cn(C4CCN(Cc5ccccn5)CC4)c4ccccc34)C(=O)NC2=O)c2ccccc21 [Enzastaurin] + C[C@]12O[C@H](C[C@]1(O)CO)n1c3ccccc3c3c4c(c5c6ccccc6n2c5c31)CNC4=O [Lestaurtinib] (first compound 4 µM, partner dose 0.02 µM)",90.1,94.7,64.1,56.6,87.1,61.8,77.3,68.9,45.7,60
"C[As](C)SC[C@H](NC(=O)CC[C@H](N)C(=O)O)C(=O)NCC(=O)O [Darinaparsin] + COc1ccc(COc2ccc(Cc3cnc(N)nc3N)cc2OC)cc1 [GW2580] (first compound 2 µM, partner dose 5 µM)",84,95.9,77.3,65.8,89,94.3,81.6,73,90,92.9
"C[C@]12O[C@H](C[C@]1(O)CO)n1c3ccccc3c3c4c(c5c6ccccc6n2c5c31)CNC4=O [Lestaurtinib] + CN(NC(=O)CC(=O)NN(C)C(=S)c1ccccc1)C(=S)c1ccccc1 [STA4783] (first compound 0.02 µM, partner dose 0.03 µM)",28.2,64.6,73.2,46.3,94.8,34.6,17.1,73.4,25.4,61.4
"N.N.[Cl][Pt][Cl] [cisplatin] + C[As](C)SC[C@H](NC(=O)CC[C@H](N)C(=O)O)C(=O)NCC(=O)O [Darinaparsin] (first compound 8 µM, partner dose 2 µM)",70.2,79,92.2,109,91.5,85.6,101,107,95.2,84.1
"Cn1cc(C2=C(c3cn(C4CCN(Cc5ccccn5)CC4)c4ccccc34)C(=O)NC2=O)c2ccccc21 [Enzastaurin] + O=C(O)[C@@H]1[O][Sb](=[O])([O][Sb]2(=[O])[O][C@H]([C@H](O)CO)[C@H](O)[C@H](C(=O)O)[O]2)[O][C@H]([C@H](O)CO)[C@@H]1O [stibogluconate] (first compound 4 µM, partner dose 10 µM)",110,103,88.6,105,104,72.9,91.9,98.5,72,89
"C[As](C)SC[C@H](NC(=O)CC[C@H](N)C(=O)O)C(=O)NCC(=O)O [Darinaparsin] + Nc1cccc2c1CN(C1CCC(=O)NC1=O)C2=O [lenalidomide] (first compound 2 µM, partner dose 5 µM)",114,109,93.7,67.7,77.4,67.7,69.7,63.2,96.2,92.6
"N.N.[Cl][Pt][Cl] [cisplatin] + O=C(O)c1ccc(-c2c[nH]c3ncc(-c4ccccc4)cc23)cc1C1CCCC1 [GSK650394] (first compound 8 µM, partner dose 0.8 µM)",106,104,103,99.5,73.3,111,99.7,78.9,81.4,89.9
